Molecules are shown by their SMILES. Hit rate of the full screen: of about 110,000 compounds, about 230 (0.21%) showed an effect of 50% or more. This is one part of the list.
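Further: 30 min substrate incubation versus DMSO and 10 µM JCP410 controls.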

Chain of DPAP1 (Q8IIJ9 whole entry, looked up): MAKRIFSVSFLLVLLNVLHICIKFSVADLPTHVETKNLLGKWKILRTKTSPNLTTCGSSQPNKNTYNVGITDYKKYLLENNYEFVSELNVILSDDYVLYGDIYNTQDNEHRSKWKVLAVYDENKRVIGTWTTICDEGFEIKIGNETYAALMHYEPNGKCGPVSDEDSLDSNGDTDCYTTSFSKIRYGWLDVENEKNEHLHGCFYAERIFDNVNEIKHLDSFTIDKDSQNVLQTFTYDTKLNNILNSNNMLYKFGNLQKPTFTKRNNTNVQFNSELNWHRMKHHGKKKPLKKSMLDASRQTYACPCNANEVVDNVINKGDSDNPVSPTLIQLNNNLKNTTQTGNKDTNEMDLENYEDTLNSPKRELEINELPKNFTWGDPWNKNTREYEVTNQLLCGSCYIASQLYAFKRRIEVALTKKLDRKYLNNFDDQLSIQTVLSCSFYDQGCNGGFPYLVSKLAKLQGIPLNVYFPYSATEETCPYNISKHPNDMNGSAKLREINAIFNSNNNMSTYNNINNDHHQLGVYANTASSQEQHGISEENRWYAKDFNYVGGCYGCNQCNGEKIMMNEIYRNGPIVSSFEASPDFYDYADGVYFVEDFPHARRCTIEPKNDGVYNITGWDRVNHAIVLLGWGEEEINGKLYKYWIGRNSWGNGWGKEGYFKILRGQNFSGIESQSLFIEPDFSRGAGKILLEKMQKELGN

The experiment has as its target DPAP1 (Plasmodium falciparum, UniProt Q8IIJ9). Description: primary screen, percent inhibition; read by cleavage of a fluorogenic dipeptide substrate; higher = more effect of the substance. Set-up: species or system P. falciparum D10 trophozoite lysates; single well.
For `Cc1cc(C)c(C)c(S(=O)(=O)NCC(=O)N2CCN(c3ccccc3)CC2)c1C`, the “% Inhibition @ 10 uM” value is recorded as -2.85%.
As for `OC1CCN(Cc2cc(Br)cs2)CC1`, the “% Inhibition @ 10 uM” value is listed as 1.48%.
In the case of `O=C(c1ccccc1)N1CCC(c2nc(O)c3nnn(Cc4ccco4)c3n2)CC1`, the “% Inhibition @ 10 uM” value is recorded as -2.28%.
On to `O=C(NC(=O)c1ccc2ccccc2c1)Nc1cccc(Cl)c1`, for which the “% Inhibition @ 10 uM” value was determined as 7.92%.
In the case of `Cc1nn(C)c2c1c(C(F)(F)F)cc(=O)n2CC(=O)NC(C)c1ccccc1` (centres unmarked), the “% Inhibition @ 10 uM” value is reported as 2.31%.
For `CC1=C(c2nc(-c3ccc(C)cc3)no2)C(c2ccc(F)cc2)NC(S)=N1` (centres unmarked), the “% Inhibition @ 10 uM” value turned out to be 1.68%.
The same measure for `COCCNC(=O)C1CCN(c2nn3cc(-c4ccc(F)cc4)nc3s2)CC1`: 3.12%; for `CCOc1ccccc1CNC(=O)Cn1nc(C)n2cccc2c1=O`: -5.44%; for `COc1ccccc1C(=O)Nc1ccc(Br)c(C(F)(F)F)c1`: -6.18%.
The same measure for `CCN(CC)S(=O)(=O)N1CCCC(C(=O)NCc2ccccc2)C1` (centres unmarked): -0.519%.
The same measure for `CC(C)c1ccc(OCC(=O)O/N=C(\N)c2ccncc2)c(Br)c1`: 3.87%; for `COc1cccc(C2C3=C(O)CCCC3=NC(C)=C2C(=O)Nc2nc3ccccc3s2)c1` (centres unmarked): -2.68%; for `O=C(CC1CCCCC1)NCc1nc(-c2ccccc2)no1`: -2.99%.
For the compound `COc1ccc(Br)cc1CNC(=O)COCc1cc(-c2cccs2)on1`, the “% Inhibition @ 10 uM” value worked out at 3.37%.
Under `COc1ccc(C(=O)/C=C/c2cccc(Cl)c2Cl)c(OC)c1` stands -4.08%.
With `Cc1ccccc1N1C(=O)/C(=C/c2c[nH]c3ccccc23)C(=O)NC1=S`, the “% Inhibition @ 10 uM” value turned out to be 7.56%.
Under `CCOC(=O)c1cnc2nc(C(F)(F)F)nn2c1O` stands -0.591%; under `O=C(O)c1c2c(nc3ccc(S(=O)(=O)N4CCC(C(=O)NCc5ccco5)CC4)cc13)CCCC2`, 0.291%; under `CCCc1c(C)nc2ccc(C(=O)O)cc2c1S`, 1.8%.
Take `CCOC(=O)c1c(C)n(C)c2ccc3c(c12)CN(Cc1ccccc1)CO3`: the “% Inhibition @ 10 uM” value was found to be 0.146%.
Under `CCC(C)[C@H](NC(=O)OCc1ccccc1)C(=O)N[C@@H](CCc1ccccc1)C(O)CNS(=O)(=O)c1ccc2oc3ccccc3c2c1` (some centres unmarked) stands -7.58%; under `CCOC(=O)c1c(NC(=O)/C=C/c2ccc(OC)cc2)sc2c1CCCC2`, -0.712%.
For the compound `Cc1cc(NC(=O)NC23CC4CC(CC(C4)C2)C3)c2ccccc2n1`, the “% Inhibition @ 10 uM” value was -1.96%.
Under `CCN(CC)CCN(C(=O)COc1ccccc1)c1nc2ccc(Br)cc2s1` stands 6.99%; under `CCN1CCN(C(=O)c2cc(-c3ccc(Br)cc3)nc3ccccc23)CC1`, -0.473%.
For the compound `Clc1ccc(-c2noc3ncnc(NCc4ccco4)c23)cc1`, the “% Inhibition @ 10 uM” value is recorded as -11.6%.
The same measure for `COc1cc(NC(=O)CS(=O)(=O)Cc2ccccc2)c(OC)cc1Cl`: 5.18%; for `CCOC(=O)N1CCC(N2CCc3cc(OC)c(OC)cc3C2c2cccc(Cl)c2)CC1` (centres unmarked): 2.22%; for `CC1(C)CC(NC(=O)N2c3ccccc3CCc3ccccc32)CC(C)(C)N1`: -2.07%.
The same measure for `C=CCOc1ccc2ccccc2c1CNc1nc[nH]n1`: 0.343%; for `Nc1ccc(Oc2ccc(Cl)c3ccccc23)c(Cl)c1`: -2.15%; for `CC(=O)NCCNC(=O)C1CCC(CNc2nc(S)nc3ccccc23)CC1` (centres unmarked): 6.2%.
Turning to `Cc1ccc(Oc2cccc([N+](=O)[O-])c2)cc1C`, the “% Inhibition @ 10 uM” value is given as 2.94%.
For `CN(C1CCCCC1)S(=O)(=O)c1ccc(C(=O)Nc2nc(-c3ccccn3)cs2)cc1`, the “% Inhibition @ 10 uM” value is -1.4%.
Regarding `Cc1ccccc1Oc1ccc(S(=O)(=O)NCc2ccccn2)cc1`, the “% Inhibition @ 10 uM” value is reported as -11.5%.
Under `COc1ccccc1/C=C/c1nc(C#N)c(N2CCC(C(N)=O)CC2)o1` stands 4.13%; under `COC(=O)c1ccc(NC(=O)c2cc(Cl)ccc2Cl)cc1[N+](=O)[O-]`, 2.55%.
Consider `Cn1c(=O)c2c(nc(SCc3nn[nH]n3)n2Cc2ccccc2)n(C)c1=O`, for which the “% Inhibition @ 10 uM” value is -1.92%.
Under `COc1cc(/C=C2/SC(=O)N(CC(=O)N3CCN(c4ccccc4)CC3)C2=O)ccc1OC(C)C` stands -1.89%; under `COc1cc(/C=C2N=C(/C=C/c3ccc(C)cc3)OC/2=O)cc(OC)c1OC`, -1.12%; under `COc1cccc(C(O)Cc2ccccc2)c1` (centres unmarked), 2.01%.
As for `CCCN1CCC(N(CCc2ccccc2)Cc2ccccc2)CC1`, the “% Inhibition @ 10 uM” value is listed as -1.21%.
The same measure for `O=CN1CCN(Cc2cccc(Cl)c2)CC1`: 2.7%.
For the compound `Sc1nnc(CN2CCSCC2)n1-c1cccc(Cl)c1`, the “% Inhibition @ 10 uM” value was 3.61%.
Regarding `O=C(c1cc2c(=O)oc3ccccc3c2s1)N1CCN(c2ccccn2)CC1`, the “% Inhibition @ 10 uM” value was found to be 3.49%.
The same measure for `CCSCCOC(=O)C1=C(C)N(C)C(=O)NC1c1cc2c(cc1Br)OCO2` (centres unmarked): 4.1%; for `Cn1c2c(c(=O)n(C)c1=O)CN(Cc1cccnc1)CN2`: -1.52%.
Turning to `CCOC(=O)c1cc2c(=O)n3ccccc3nc2n(CC(C)C)/c1=N/C(C)=O`, the “% Inhibition @ 10 uM” value was 0.457%.
Under `CC(C)N(Cc1nc(-c2ccc(Cl)cc2)no1)C(=O)CCCN1C(=O)c2ccccc2C1=O` stands -1.24%; under `O=C(O)Cn1cc(C(=O)c2ccco2)c2ccccc21`, -8.95%.
The same measure for `C=CCSc1nc(O)c2c(n1)NC(=O)CC2c1cccc(O)c1` (centres unmarked): 0.596%; for `Cc1ccc(C)c2nc(O)c(CCNS(=O)(=O)c3ccc(Br)cc3)cc12`: -4.16%.
For `Cc1cc(C)n(-c2nncn2/N=C/c2ccc(Cl)cc2Cl)n1`, the “% Inhibition @ 10 uM” value is -1.24%.
As to `O=[N+]([O-])c1ccc(OCCCCN2CCCCC2)cc1`, the “% Inhibition @ 10 uM” value is reported as 3%.
As for `Cc1ccc2c(=O)cc(C(=O)NCc3ccccc3)oc2c1C`, the “% Inhibition @ 10 uM” value is -1.47%.
Consider `CCC1=C(c2ccc(C)cc2)S(=O)(=O)N=C1N1CCC(C(=O)N2CCCCCC2)CC1`, for which the “% Inhibition @ 10 uM” value is recorded as -2.66%.
As for `Cc1ccc(NC(=O)C(c2ccccc2)N2Cc3ccccc3C2=O)nc1` (centres unmarked), the “% Inhibition @ 10 uM” value is 1.13%.
The same measure for `Cc1ccc(-n2c(SCC(=O)NCC3CCCO3)nc3nnc(C)c-3c2N)cc1Cl` (centres unmarked): -2.17%.
Under `CCOC(=O)c1cnc(SC)nc1N` stands 1.22%.
Under `Cc1cc(C)cc(NC(=O)c2ccc([N+](=O)[O-])cc2)c1` stands 1.83%.
Consider `Cc1cc(C(=O)NC(C)CCc2ccccc2)n(-c2ccccc2)n1` (centres unmarked), for which the “% Inhibition @ 10 uM” value worked out at 2.35%.
The same measure for `COc1cc(/C=C(\C#N)c2nc(O)c3ccccc3n2)cc(OC)c1OC`: -1.1%; for `CCOC(=O)c1ccc(NC(=O)COc2ccccc2)cc1`: -5.28%.
The same measure for `O=C1NC(=O)C(=Cc2cn(CC(=O)N3CCOCC3)c3ccccc23)C(=O)N1`: -5.01%; for `CCC(CC)C(=O)Nc1ccc(C)c(O)c1`: 4.31%; for `Cc1ccc(Cl)cc1-n1ncc2c(N(CCO)Cc3ccccc3)ncnc21`: -1.27%.
In the case of `O=C(O)C(c1ccc(F)cc1)N1Cc2ccccc2C1=O` (centres unmarked), the “% Inhibition @ 10 uM” value came out at 2.39%.
Under `Cc1cccc(-n2c(SCc3cc(=O)n4c(C)cccc4n3)nc3nncc-3c2O)c1` stands -3.94%; under `N#CC1=C(N)Oc2[nH]nc(-c3ccccc3)c2C1c1ccc(Br)cc1` (centres unmarked), 0.121%.
For `CCOC(=O)N1CCN(C(=O)C2CCCN(C(=O)c3cc4sccc4n3C)C2)CC1` (centres unmarked), the “% Inhibition @ 10 uM” value is given as -6.24%.
Under `CCN(CC)Cc1c(O)ccc2occ(C(=O)c3ccccc3)c12` stands 3.82%.
For the compound `CCN1CN(Cc2ccccc2)CNC1=S`, the “% Inhibition @ 10 uM” value is -6.87%.
With `COc1ccc(C(=O)CCC(=O)NCCSCc2ccccc2)cc1`, the “% Inhibition @ 10 uM” value was determined as 0.238%.
Regarding `O=C(Nc1ccc(-c2ccccc2)cc1)C1CC1c1ccccc1` (centres unmarked), the “% Inhibition @ 10 uM” value is on record as 0.878%.
`O=C(O)c1cn(-c2ccc(F)cc2)c2cc(Cl)c(F)cc2c1=O`: the “% Inhibition @ 10 uM” value is 4.03%.
The same measure for `CC(CN(C)C)C(=O)c1ccccc1` (centres unmarked): -2.77%; for `CN(C)c1ccc(NC(=O)c2ccc(C(C)(C)C)cc2)cc1`: 0.205%.
For the compound `O=C(Nc1ccccc1F)c1cc(-c2ccco2)nc2ccccc12`, the “% Inhibition @ 10 uM” value is reported as 8%.
Under `O=C(NC(Cc1c(F)cccc1F)C(=O)Nc1nc2ccccc2[nH]1)c1ccc(-c2ccccc2Cl)cc1` (centres unmarked) stands -3.48%.
With `CC(C)NC(=O)c1nnc(Cc2c(F)cccc2Cl)o1`, the “% Inhibition @ 10 uM” value amounted to 2.5%.
For the compound `Cc1ccc(CNC(=O)CCCn2nc(C)c3sc4ccccc4c3c2=O)cc1`, the “% Inhibition @ 10 uM” value is -1.49%.
In the case of `CC(C)C(NS(=O)(=O)c1cccc2nsnc12)C(=O)NCCC1=CCCCC1` (centres unmarked), the “% Inhibition @ 10 uM” value was 2.93%.
The same measure for `CO/C(O)=C1\C(C)=NC(=S)NC1c1cccc(OC)c1` (centres unmarked): -1.66%.
With `COc1ccc(S(=O)(=O)N(CC(=O)Nc2ccc3c(c2)OCCO3)c2ccccc2)cc1OC`, the “% Inhibition @ 10 uM” value is -3.49%.
With `CCCN(CCC)CCNC(=O)c1cc2c(s1)-c1ccc(Cl)cc1S(=O)(=O)C2`, the “% Inhibition @ 10 uM” value is recorded as -0.72%.
Regarding `CCOC(=O)NC1(C(F)(F)F)C(=O)N(Cc2ccccn2)C2=C1C(=O)CC(C)(C)C2` (centres unmarked), the “% Inhibition @ 10 uM” value is -0.703%.
With `CC1(C)CC(=O)C2=C(C1)OC(=O)CC2c1ccccc1C(F)(F)F` (centres unmarked), the “% Inhibition @ 10 uM” value is -2.19%.
On to `COc1cc(C2C3=C(CC(C)(C)CC3=O)N(C)C3=C2C(=O)CC(C)(C)C3)ccc1O`, for which the “% Inhibition @ 10 uM” value is -1.6%.
In the case of `COc1cc2ccccc2cc1C(=O)NCC12CC3CC(CC(C3)C1)C2`, the “% Inhibition @ 10 uM” value worked out at 2.4%.
As for `Cc1ccc(NC2CC(=O)N(c3ccccc3)C2=O)cc1` (centres unmarked), the “% Inhibition @ 10 uM” value is reported as 4.99%.
The same measure for `Cc1ccc(CN2C(=O)N/C(=C/c3cc(Br)cs3)C2=O)cc1`: -9.02%; for `CCOc1cc(N2CCOCC2)ccc1[N+](=O)[O-]`: 0.467%; for `CCN(CC)CCN(C)CC(C)c1ccccc1` (centres unmarked): -3.8%.
Take `O=C(NC1CCCCC1)C1CCC(CNc2nc(S)nc3ccccc23)CC1` (centres unmarked): the “% Inhibition @ 10 uM” value came out at 1.41%.
Under `O=C(COc1ccc(S(=O)(=O)NC2CCCCC2)cc1)NC1CCCCCC1` stands -4.62%; under `O=C(NCCCN1CCC(Cc2ccccc2)CC1)c1cc(-c2ccncc2)nc2ccccc12`, 2.79%.
For `CC(C)OCCCNC(=O)Cn1ncc2c3ccccc3n(Cc3cccc(Cl)c3)c2c1=O`, the “% Inhibition @ 10 uM” value was -1.58%.
With `OCC1CCCN(Cc2ccncc2)C1` (centres unmarked), the “% Inhibition @ 10 uM” value is on record as -1.64%.

Source of the values: PMC6919601, “Identification of Plasmodium dipeptidyl aminopeptidase allosteric inhibitors by high throughput screening” (PLoS ONE, 2019).
